# The RNAGym collection of RNA variant scans (doi:10.7554/elife.90254)
# Read counts are not given, so values of variants with three or more changes are uncertain.
# B1: LINE1-mini (parent)
# chain: GGCAGAGCUCAACACAGCGUGGCAAAGUGGCUGUGGCUAGACUGCC
# Variants of: B1
# Test: self-cleavage, relative activity (ratio to wild type); higher = more cleavage; in vitro, sequencing; the parent is a self-cleaving ribozyme
row,Variant,self-cleavage
1,GGCCGAGUUCAACGCAGCGUGGCAGAGUCGCUGUGGCUAGACUGCC [A4C C8U A14G A25G G29C],0.06
2,GGCCGAGCUCAACACAGCGUGGCAUAGUGGCUGUCGCUAAACUGCC [A4C A25U G35C G40A],0.08
3,GGCCGAGCUCAACACAGAAUGGCAAAGUGGCUGUGGCUAGACUGCC [A4C C18A G19A],0.34
4,GGCCGAGACCAACACGGCGUGGCAAUGUGGCUGUGACUAGACUGCC [A4C C8A U9C A16G A26U G36A],0.09
5,GGCCGAGCUCAACAUAGCGUGGCAAAUUGGCUGUGGCUAGACUGCC [A4C C15U G27U],0.21
6,GGCCGAGCUCAACAUAGCGUGGCAAAAUGGCUGUGGCUAGACUGCC [A4C C15U G27A],0.03
7,GGCCGAGCUAAACACAUCUUGGCACAGUGGCUGUGGCUAGACUGCC [A4C C10A G17U G19U A25C],0.02
8,GGCCGAGAUCAACACAGCGUGGAAAACUGGCUGUGGCUAGAAUUCC [A4C C8A C23A G27C C42A G44U],0.14
9,GGCCGAGAUUAACCCAGCGUGGCAAAGCGGCUGUGGCUAGACUGCC [A4C C8A C10U A14C U28C],0.01
10,GGCCGAGAUCAACACAGCGUCGCAAACUGGCUGUGGCUAGACUGCC [A4C C8A G21C G27C],0.16
11,GGCCGAGCUAAACACAGCGUGGCAAAGUGGCUGUGGCUAGACUGUC [A4C C10A C45U],0.03
12,GGCCGAGCUUAACACAGCGUGGCAAAGUGGCUGUGGCUAGACUGUC [A4C C10U C45U],0.1
13,GGCCGAGCUCAAAACAGCUUGGCAAAGAGGCUGUGGCUAGACUACC [A4C C13A G19U U28A G44A],0.02
14,GGCCGAGCUCAAUACAACUUGGCAAAGUGGCUGUGGCUAGACUGCC [A4C C13U G17A G19U],0.02
15,GGCCGAGCUCAACACAGCGUGGCUAAGUGGCUAUGGCUAGACUGCC [A4C A24U G33A],0.05
16,GGCCGAGCUAAAAACAGCGUGGCAACGUGGCCGUGGCUAGACUACC [A4C C10A C13A A26C U32C G44A],0.01
17,GGCCGAGAUCACCACAGCGUGGCAUAGUGGCUGUGGCUAGACUGCC [A4C C8A A12C A25U],0.05
18,GGCCGAGCUCAAAACAGCGUGGCAAAGUGGCUGGGGCUAGACUGCC [A4C C13A U34G],0.04
19,GGCCGAGCUAAAUCAAGCGUGGCAAAGUGGCUGAGGCUAGACUGCC [A4C C10A C13U A14C C15A U34A],0.06

row,Variant,self-cleavage
1,GGCCGAGCUCAACAUAGCGUGGCAAAGCGGCUGGGGCUAGACUGCC [A4C C15U U28C U34G],0
2,GGCCGAGCUGAACACAGCGUGGCAAAGUGGCUGUGGCUAGAGUGCC [A4C C10G C42G],0.01
3,GGCCGAGCUAAACGCAGCGUGGCAAAGUGGCUGCGGCUAGACUGCC [A4C C10A A14G U34C],0
4,GGCCGAGUUCAACACAGCCUGGCAAAGUGGCUGUGGCUGGACUGCC [A4C C8U G19C A39G],0
5,GGCCGAGAUCAACACAGCGUGGCAAUGUGGCUGUGGCUAGAAUGCC [A4C C8A A26U C42A],1.45
6,GGCCGAGCUCAAAACAGCGUGGCAAAGUGGCUGUGGCUAGACUGUC [A4C C13A C45U],0.24
7,GGCCGAGCUAAACACAGCAUGGCAAAGUGGGUGUGGCUAGACUGCC [A4C C10A G19A C31G],0.03
8,GGCCGAGUUCAACACAGCGUGGCAAAGUGGCUGUGGCUAGAUUGCC [A4C C8U C42U],0.06
9,GGCCGAGCUCAAAACAGCUUGGCAAAGCGGCUGUGGCUGGACUACC [A4C C13A G19U U28C A39G G44A],0.01
10,GGCCGAGCUCAACACAGCGUGGCAAGGUGGCUGUGGCUAGAGUGCC [A4C A26G C42G],0.16
11,GGCCGAGCUUAACACAGCGUGCCAAAGUGGCUGUGGCUAGACUGCC [A4C C10U G22C],0.03
12,GGCCGAGCUCAAAACAGCGUGGCAAAGUUGCCAUUGCUAGACUGCC [A4C C13A G29U U32C G33A G35U],0.26
13,GGCCGAGCUUAACACAGCGUGGCAAAGUGGCUGUGGCUAAACUGCC [A4C C10U G40A],0.02
14,GGCCGAGCUCAACACAGAGUAGCAAAGUGGCUGUGGCUCGACUGCC [A4C C18A G21A A39C],0.05
15,GGCCGAGCUCAACAUAGCGUGGCAAAGUGGCUGUGGCUGGACUGCC [A4C C15U A39G],0.29
16,GGCCGAGCUCAAUACAGCGAGGCAAAGUGGGUGUGGCUAUAGAGCC [A4C C13U U20A C31G G40U C42G U43A],0.01
17,GGCCGAGCUCAACACAGCGUGGCAAGGUGCCUGUGGCUAGACUGUC [A4C A26G G30C C45U],0.02
18,GGCCGAGCUCAACAAAGCGUUGCAAAGUGGCUGUGGCUAGACUGCC [A4C C15A G21U],0.05
19,GGCCGAGUUCAACACCGCGUGGCAAACUGGCUUUGGCUAGACUGCC [A4C C8U A16C G27C G33U],0.13

row,Variant,self-cleavage
1,GGCCGAGUUCAACACAGCGUUGCAAAGUUGCUGUGGGUAGACUGCC [A4C C8U G21U G29U C37G],0.03
2,GGCCGAGCUCAAAAGAGCGUGGCAAAGUGGCUGUGGCUAGACUGCC [A4C C13A C15G],0.02
3,GGCCGAGCUCAACAAAGCGUGGAAAAGUGGCUGUGACCAGACUGCC [A4C C15A C23A G36A U38C],0.61
4,GGCCGAGCUUAACACAGCGUGGCAAACUGGCUGUGGCUAGACUGCC [A4C C10U G27C],0.09
5,GGCCGAGCUCAAAACAGCGUGGCAAAGUGGCUGUGGCUAAACUGCC [A4C C13A G40A],0.13
6,GGCCGAGCUAAACAUAGCGUGGCAAAGUGGCUGUGUCCAGACUGCC [A4C C10A C15U G36U U38C],0.01
7,GGCCGAGCUCAAAUCAGCGUGGCAGAGUGGCUGUGGCUAGACUGCC [A4C C13A A14U A25G],0.48
8,GGCCGAGGACAACACAGCGUGGCAAAUUCGCUGUGGCUAGACUGCC [A4C C8G U9A G27U G29C],0.07
9,GGCCGAGUUCAACACAGCGUGGCAAUGUGGCUGUGGCUAGACUGCC [A4C C8U A26U],0.06
10,GGCCGAGUUCAACACAGCGUGGAAAAGUGGCUGUGGCUAGACUGCC [A4C C8U C23A],0.11
11,GGCCGAGUUCAACACAGCGUGGCAAAGUGGCUGUGGCAAGACUGCC [A4C C8U U38A],0.1
12,GGCCGAGCUUAACACAGAGUGGCAACGUGGCUGUGGCUAGACUGCC [A4C C10U C18A A26C],0.07
13,GGCCGAGCUUAACACAGCGCGGCAAAGUGGAUGUGGCUAGAUUGCC [A4C C10U U20C C31A C42U],0.01
14,GGCCGAGCUAAACACAGCCUGGCAAAGUGGCUGUGGUUACCCUGCC [A4C C10A G19C C37U G40C A41C],0
15,GGCCGAGCUUAACACAGCGUGACAAAGUGGCUGUGCCUCGACUGCC [A4C C10U G22A G36C A39C],0.04
16,GGCCGAGUUCAACACAGCGUGGCAAAGUGGCCGUGGCUAGACUGCC [A4C C8U U32C],0.09
17,GGCCGAGUUCUACACAGCGUGGCAAAGUGGCUGUGCCUUGACUGCC [A4C C8U A11U G36C A39U],0.03
18,GGCCGAGCUCAACACAGCGUGGCUAAGUCGCUGUGGCUAGAUUGCC [A4C A24U G29C C42U],0.04
